Results reported in ChEMBL document CHEMBL5674866 (J Biol Chem, 2015).

Columns and labels:
[1] = Inhibition of human EGFR S752/I759 double mutant by discoverX kinome scan assay
[2] = Inhibition of human CSF1R-autoinhib by discoverX kinome scan assay
[3] = target: Serine/threonine-protein kinase Nek11 (Homo sapiens, UniProt Q8NG66); assay: Inhibition of human NEK11 by discoverX kinome scan assay
KYSE-150 cell line [4] = assay: Effect on cellular post-translational modifications on histone H3 (KSTGGKAPR) - K9 monomethylated, K14 unmethylated in human KYSE-150 cells assessed as fold change by mass spectrometric analysis; assay type: functional
[5] = target: Phosphatidylinositol 4,5-bisphosphate 3-kinase catalytic subunit alpha isoform (Homo sapiens, UniProt P42336); assay: Inhibition of human PIK3CA by discoverX kinome scan assay
Chain of UniProt P42336 (P42336 whole entry, canonical isoform): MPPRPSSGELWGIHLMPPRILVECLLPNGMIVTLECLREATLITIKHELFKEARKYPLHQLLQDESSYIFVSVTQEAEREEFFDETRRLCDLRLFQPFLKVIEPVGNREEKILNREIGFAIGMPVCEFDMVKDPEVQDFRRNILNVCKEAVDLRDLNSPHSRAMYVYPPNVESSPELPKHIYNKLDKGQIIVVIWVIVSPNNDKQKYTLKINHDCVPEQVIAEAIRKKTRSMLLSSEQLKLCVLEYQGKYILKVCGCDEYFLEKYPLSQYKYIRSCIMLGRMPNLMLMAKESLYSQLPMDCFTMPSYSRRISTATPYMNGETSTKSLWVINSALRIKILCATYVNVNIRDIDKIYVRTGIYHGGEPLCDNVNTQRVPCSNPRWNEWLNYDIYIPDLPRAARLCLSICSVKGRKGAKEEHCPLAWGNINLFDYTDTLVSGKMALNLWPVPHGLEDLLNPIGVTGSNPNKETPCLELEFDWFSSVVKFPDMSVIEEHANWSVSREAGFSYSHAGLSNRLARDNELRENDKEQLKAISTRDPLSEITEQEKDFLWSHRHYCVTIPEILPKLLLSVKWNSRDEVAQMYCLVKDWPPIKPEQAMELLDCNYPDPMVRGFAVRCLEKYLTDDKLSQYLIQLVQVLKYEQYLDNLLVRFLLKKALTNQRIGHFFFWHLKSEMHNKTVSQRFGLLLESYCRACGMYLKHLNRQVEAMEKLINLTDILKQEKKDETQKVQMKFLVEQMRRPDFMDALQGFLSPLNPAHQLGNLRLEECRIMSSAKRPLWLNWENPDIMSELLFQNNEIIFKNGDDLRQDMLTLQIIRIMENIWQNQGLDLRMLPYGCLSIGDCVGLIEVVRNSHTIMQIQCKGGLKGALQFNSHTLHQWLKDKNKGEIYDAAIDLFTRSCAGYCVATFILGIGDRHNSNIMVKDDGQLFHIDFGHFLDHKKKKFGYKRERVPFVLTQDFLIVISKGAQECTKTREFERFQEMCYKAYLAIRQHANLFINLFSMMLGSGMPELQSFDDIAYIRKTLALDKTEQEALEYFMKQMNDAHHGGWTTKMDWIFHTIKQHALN

KYSE-150 cell line [6] = assay: Effect on cellular post-translational modifications on histone H3 (GKGGKGLGKGGAKR) - K5 unmethylated, K8 unmethylated, K12 unmethylated, K16 acetylated in human KYSE-150 cells assessed as fold change by mass spectrometric analysis; assay type: functional
KYSE-150 cell line [7] = assay: Effect on cellular post-translational modifications on histone H3 (KSTGGKAPR) - K9 trimethylated, K14 acetylated in human KYSE-150 cells assessed as relative abundance at 5 by mass spectrometric analysis (reference value: 7+/-0.2); assay type: functional; conditions: dose 5 µM
In short: (§1)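 Histones acid-extracted from SMYD2-overexpressing KYSE-150 cells treated with vehicle or 5 μM inhibitor. Samples derivatized with propionic anhydride, then trypsin-digested for 6 h at 37 °C. Each modification's relative abundance on a peptide sequence, as a percentage, was quantified from MS and MS/MS spectra and compared with vehicle.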

[8] = target: Serine/threonine-protein kinase Nek3 (Homo sapiens, UniProt P51956); assay: Inhibition of human NEK3 by discoverX kinome scan assay
KYSE-150 cell line [9] = assay: Effect on cellular post-translational modifications on histone H4 (KVLR) - K20 trimethylated in human KYSE-150 cells assessed as relative abundance at 5 by mass spectrometric analysis (reference value: 0.8+/-0.1); assay type: functional; in short: as §1
KYSE-150 cell line [10] = assay: Effect on cellular post-translational modifications on histone H3 (KSTGGKAPR) - K9 acetylated, K14 unmethylated in human KYSE-150 cells assessed as relative abundance at 5 by mass spectrometric analysis (reference value: 2.1+/-0.9); assay type: functional; conditions: dose 5 µM
[11] = target: Phosphatidylinositol 3-kinase C2 domain-containing subunit gamma (Homo sapiens, UniProt O75747); assay: Inhibition of human PIK3C2G by discoverX kinome scan assay
Chain of UniProt O75747 (O75747 whole entry): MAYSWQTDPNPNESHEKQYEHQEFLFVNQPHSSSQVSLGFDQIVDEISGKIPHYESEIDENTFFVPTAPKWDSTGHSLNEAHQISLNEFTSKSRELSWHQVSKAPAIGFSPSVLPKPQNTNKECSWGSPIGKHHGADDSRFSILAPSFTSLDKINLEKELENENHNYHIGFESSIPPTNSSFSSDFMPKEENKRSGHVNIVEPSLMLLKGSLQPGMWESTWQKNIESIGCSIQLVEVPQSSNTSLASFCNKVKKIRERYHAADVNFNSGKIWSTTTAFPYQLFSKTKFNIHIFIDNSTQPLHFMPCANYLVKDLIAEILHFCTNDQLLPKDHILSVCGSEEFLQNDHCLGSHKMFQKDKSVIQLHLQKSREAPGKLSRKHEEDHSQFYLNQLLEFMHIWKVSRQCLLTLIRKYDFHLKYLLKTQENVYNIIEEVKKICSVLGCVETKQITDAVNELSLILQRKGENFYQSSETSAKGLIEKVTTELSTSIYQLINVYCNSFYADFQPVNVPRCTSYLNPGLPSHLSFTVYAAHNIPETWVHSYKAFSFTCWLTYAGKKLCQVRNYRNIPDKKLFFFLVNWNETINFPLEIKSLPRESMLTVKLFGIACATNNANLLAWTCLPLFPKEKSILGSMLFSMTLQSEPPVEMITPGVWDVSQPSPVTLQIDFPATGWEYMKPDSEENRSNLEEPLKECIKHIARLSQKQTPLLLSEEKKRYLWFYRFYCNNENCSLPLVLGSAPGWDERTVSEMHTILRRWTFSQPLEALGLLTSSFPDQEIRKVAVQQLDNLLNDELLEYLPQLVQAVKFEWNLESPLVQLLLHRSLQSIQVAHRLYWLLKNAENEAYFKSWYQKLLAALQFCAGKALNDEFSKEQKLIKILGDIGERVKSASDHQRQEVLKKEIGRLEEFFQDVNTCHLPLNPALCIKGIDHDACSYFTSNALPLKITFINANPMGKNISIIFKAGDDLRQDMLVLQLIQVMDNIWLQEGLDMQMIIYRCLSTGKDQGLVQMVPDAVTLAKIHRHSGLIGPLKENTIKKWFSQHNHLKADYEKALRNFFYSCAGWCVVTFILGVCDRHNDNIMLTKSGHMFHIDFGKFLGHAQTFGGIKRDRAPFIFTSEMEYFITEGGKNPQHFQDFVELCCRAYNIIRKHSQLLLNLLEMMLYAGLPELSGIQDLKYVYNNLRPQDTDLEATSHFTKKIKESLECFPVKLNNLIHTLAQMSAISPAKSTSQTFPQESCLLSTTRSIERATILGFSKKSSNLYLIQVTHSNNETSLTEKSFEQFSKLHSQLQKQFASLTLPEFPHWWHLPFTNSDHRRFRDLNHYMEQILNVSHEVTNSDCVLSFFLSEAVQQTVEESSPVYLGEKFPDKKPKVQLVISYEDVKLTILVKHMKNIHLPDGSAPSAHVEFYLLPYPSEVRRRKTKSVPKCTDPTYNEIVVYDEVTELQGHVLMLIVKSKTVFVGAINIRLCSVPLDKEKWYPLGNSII

[12] = target: Protein kinase C iota type (Homo sapiens, UniProt P41743); assay: Inhibition of PRKCI (unknown origin) by discoverX kinome scan assay
KYSE-150 cell line [13] = assay: Effect on cellular post-translational modifications on histone H3 (KSTGGKAPR) - K9 monomethylated, K14 acetylated in human KYSE-150 cells assessed as relative abundance at 5 by mass spectrometric analysis (reference value: 6.2+/-0.7); assay type: functional; conditions: dose 5 µM
[14] = target: Cyclin-dependent kinase 16 (Homo sapiens, UniProt Q00536); assay: Inhibition of human PCTK1 by discoverX kinome scan assay
[15] = target: Phosphatidylinositol 4,5-bisphosphate 3-kinase catalytic subunit alpha isoform (Homo sapiens, UniProt P42336, E545K); assay: Inhibition of human PIK3CA E545K mutant by discoverX kinome scan assay
[16] = target: Phosphatidylinositol 4,5-bisphosphate 3-kinase catalytic subunit alpha isoform (Homo sapiens, UniProt P42336, C420R); assay: Inhibition of human PIK3CA C420R mutant by discoverX kinome scan assay
[17] = target: Serine/threonine-protein kinase pim-3 (Homo sapiens, UniProt Q86V86); assay: Inhibition of human PIM3 by discoverX kinome scan assay
[18] = Inhibition of human ABL1 pQ252H mutant by discoverX kinome scan assay
[19] = target: cGMP-dependent protein kinase 2 (Homo sapiens, UniProt Q13237); assay: Inhibition of PRKG2 (unknown origin) by discoverX kinome scan assay
[20] = target: Myosin light chain kinase 2, skeletal/cardiac muscle (Homo sapiens, UniProt Q9H1R3); assay: Inhibition of human MYLK2 by discoverX kinome scan assay
Chain of UniProt Q9H1R3 (Q9H1R3 whole entry): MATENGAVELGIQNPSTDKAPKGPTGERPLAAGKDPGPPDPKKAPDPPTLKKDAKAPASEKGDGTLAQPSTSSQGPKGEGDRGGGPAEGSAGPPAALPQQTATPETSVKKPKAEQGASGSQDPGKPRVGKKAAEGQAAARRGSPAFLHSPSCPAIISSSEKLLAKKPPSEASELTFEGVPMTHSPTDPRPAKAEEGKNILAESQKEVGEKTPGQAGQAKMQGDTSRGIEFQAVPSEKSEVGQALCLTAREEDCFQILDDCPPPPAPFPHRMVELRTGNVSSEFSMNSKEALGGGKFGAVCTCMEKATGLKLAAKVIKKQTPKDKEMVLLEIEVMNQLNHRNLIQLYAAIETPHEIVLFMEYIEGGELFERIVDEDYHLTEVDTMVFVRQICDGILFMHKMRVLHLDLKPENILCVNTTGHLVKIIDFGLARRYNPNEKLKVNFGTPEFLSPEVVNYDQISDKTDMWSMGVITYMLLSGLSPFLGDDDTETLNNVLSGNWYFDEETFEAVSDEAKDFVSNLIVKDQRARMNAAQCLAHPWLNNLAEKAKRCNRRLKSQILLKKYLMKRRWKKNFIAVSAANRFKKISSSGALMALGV

KYSE-150 cell line [21] = assay: Effect on cellular post-translational modifications on histone H3 (TKQTAR) - K4 unmethylated in human KYSE-150 cells assessed as relative abundance at 5 by mass spectrometric analysis (reference value: 85.5+/-0.9); assay type: functional; conditions: dose 5 µM; in short: as §1
[22] = target: Serine/threonine-protein kinase D1 (Homo sapiens, UniProt Q15139); assay: Inhibition of PRKD1 (unknown origin) by discoverX kinome scan assay
KYSE-30 = assay: Antiproliferative activity against human KYSE-30 cells measured after 7 day by celltitre-glo luminescent assay; assay type: functional, cell-based; conditions: KYSE-30, 168 h
[23] = target: Protein kinase C epsilon type (Homo sapiens, UniProt Q02156); assay: Inhibition of human PRKCE by discoverX kinome scan assay
KYSE-150 cell line [24] = assay: Effect on cellular post-translational modifications on histone H3 (EIAQDFKTDLR) - K79 monomethylated in human KYSE-150 cells assessed as relative abundance at 5 by mass spectrometric analysis (reference value: 16.2+/-3.3); assay type: functional; conditions: dose 5 µM
[25] = target: Phosphatidylinositol 4,5-bisphosphate 3-kinase catalytic subunit alpha isoform (Homo sapiens, UniProt P42336, M1043I); assay: Inhibition of human PIK3CA M1043I mutant by discoverX kinome scan assay
[26] = target: Phosphatidylinositol 4-kinase beta (Homo sapiens, UniProt Q9UBF8); assay: Inhibition of human PIK4CB by discoverX kinome scan assay
[27] = target: Protein kinase C delta type (Homo sapiens, UniProt Q05655); assay: Inhibition of human PRKCD by discoverX kinome scan assay
KYSE-150 cell line [28] = assay: Effect on cellular post-translational modifications on histone H3 (KSTGGKAPR) - K9 dimethylated, K14 acetylated in human KYSE-150 cells assessed as relative abundance at 5 by mass spectrometric analysis (reference value: 16.6+/-0.9); assay type: functional; conditions: dose 5 µM
[29] = target: Cyclin-dependent kinase 14 (Homo sapiens, UniProt O94921); assay: Inhibition of human PFTK1 by discoverX kinome scan assay
Chain of UniProt O94921 (O94921 whole entry): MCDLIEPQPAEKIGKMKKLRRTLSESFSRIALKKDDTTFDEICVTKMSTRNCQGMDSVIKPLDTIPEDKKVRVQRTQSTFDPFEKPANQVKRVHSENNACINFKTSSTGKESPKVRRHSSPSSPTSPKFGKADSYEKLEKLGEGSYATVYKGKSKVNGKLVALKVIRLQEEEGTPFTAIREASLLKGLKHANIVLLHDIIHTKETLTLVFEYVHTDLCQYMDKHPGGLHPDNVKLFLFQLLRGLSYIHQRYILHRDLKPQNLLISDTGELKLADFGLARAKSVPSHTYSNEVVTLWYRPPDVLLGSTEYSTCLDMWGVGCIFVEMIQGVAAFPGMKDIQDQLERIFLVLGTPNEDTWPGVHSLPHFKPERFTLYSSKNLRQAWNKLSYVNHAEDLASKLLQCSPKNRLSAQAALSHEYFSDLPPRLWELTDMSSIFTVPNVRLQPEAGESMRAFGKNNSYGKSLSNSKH

[30] = target: Serine/threonine-protein kinase 4 (Homo sapiens, UniProt Q13043); assay: Inhibition of human MST1 by discoverX kinome scan assay
Chain of UniProt Q13043 (Q13043 whole entry): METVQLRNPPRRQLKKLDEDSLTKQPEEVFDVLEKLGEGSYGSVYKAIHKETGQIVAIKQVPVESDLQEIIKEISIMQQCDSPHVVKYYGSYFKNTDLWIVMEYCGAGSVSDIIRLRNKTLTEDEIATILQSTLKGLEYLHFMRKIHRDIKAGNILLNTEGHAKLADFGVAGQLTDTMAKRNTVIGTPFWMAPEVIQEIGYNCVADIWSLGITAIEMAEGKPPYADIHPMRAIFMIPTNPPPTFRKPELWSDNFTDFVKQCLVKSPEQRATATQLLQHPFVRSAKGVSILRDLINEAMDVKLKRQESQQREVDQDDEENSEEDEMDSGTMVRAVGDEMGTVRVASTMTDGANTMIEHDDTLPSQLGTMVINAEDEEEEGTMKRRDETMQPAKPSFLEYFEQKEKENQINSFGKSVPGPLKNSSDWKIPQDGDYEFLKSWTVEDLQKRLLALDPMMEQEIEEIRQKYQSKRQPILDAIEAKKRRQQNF

[31] = target: Serine/threonine-protein kinase NIM1 (Homo sapiens, UniProt Q8IY84); assay: Inhibition of human NIM1 by discoverX kinome scan assay
KYSE-150 cell line [32] = assay: Effect on cellular post-translational modifications on histone H3 (KSTGGKAPR) - K9 unmethylated, K14 acetylated in human KYSE-150 cells assessed as relative abundance at 5 by mass spectrometric analysis (reference value: 4.3+/-0.7No_unit); assay type: functional; conditions: dose 5 µM; in short: as §1
[33] = Inhibition of human EGFR A750P by discoverX kinome scan assay
KYSE-150 cell line [34] = assay: Effect on cellular post-translational modifications on histone H4 (KVLR) - K20 dimethylated in human KYSE-150 cells assessed as relative abundance at 5 by mass spectrometric analysis (reference value: 61.8+/-8.8); assay type: functional; conditions: dose 5 µM; in short: as §1
KYSE-150 cell line [35] = assay: Effect on cellular post-translational modifications on histone H4 (KVLR) - K20 unmethylated in human KYSE-150 cells assessed as fold change by mass spectrometric analysis; assay type: functional; in short: as §1

Chain of UniProt Q8NG66 (Q8NG66 whole entry): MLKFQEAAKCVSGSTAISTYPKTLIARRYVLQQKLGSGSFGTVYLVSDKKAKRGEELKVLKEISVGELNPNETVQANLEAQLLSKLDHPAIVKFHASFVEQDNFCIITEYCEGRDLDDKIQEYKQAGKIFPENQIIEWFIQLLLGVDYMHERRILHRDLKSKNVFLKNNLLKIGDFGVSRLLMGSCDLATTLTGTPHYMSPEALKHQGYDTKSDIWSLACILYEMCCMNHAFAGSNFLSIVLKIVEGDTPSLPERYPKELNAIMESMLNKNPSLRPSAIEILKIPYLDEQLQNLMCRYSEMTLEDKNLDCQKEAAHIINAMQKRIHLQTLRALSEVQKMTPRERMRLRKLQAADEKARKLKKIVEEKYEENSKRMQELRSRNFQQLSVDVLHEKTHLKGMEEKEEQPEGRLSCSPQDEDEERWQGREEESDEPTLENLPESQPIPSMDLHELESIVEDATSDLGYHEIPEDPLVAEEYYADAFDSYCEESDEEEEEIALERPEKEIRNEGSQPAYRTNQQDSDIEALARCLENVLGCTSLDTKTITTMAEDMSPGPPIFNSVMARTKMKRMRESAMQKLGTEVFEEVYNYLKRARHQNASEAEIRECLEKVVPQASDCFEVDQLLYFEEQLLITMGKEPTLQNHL

In the case of Cc1cn(CCN2CCN(c3ccccc3-c3cc(C#N)cc(C(=O)NCCCN4CCCC4)c3)CC2)c2ccccc12, the IC50 [1] is reported as > 20 µM, the IC50 [2] is reported as 7.5 µM and the IC50 [3] is reported as > 20 µM. For the same molecule, the “fold change (FC)” value (KYSE-150 cell line [4]) was 0.8, the IC50 [5] was > 20 µM and the “fold change (FC)” value (KYSE-150 cell line [6]) was 1.31. The Activity (KYSE-150 cell line [7]) was 6.3, the IC50 [8] was > 20 µM and the Activity (KYSE-150 cell line [9]) was 0.8. For the same molecule, the Activity (KYSE-150 cell line [10]) was 2.5, the IC50 [11] was > 20 µM and the IC50 [12] was > 20 µM. For the same molecule, the Activity (KYSE-150 cell line [13]) was 8, the IC50 [14] was > 20 µM and the IC50 [15] was > 20 µM. The IC50 [16] was > 20 µM, the IC50 [17] was > 20 µM and the IC50 [18] was > 20 µM. The IC50 [19] was > 20 µM, the IC50 [20] was > 20 µM and the Activity (KYSE-150 cell line [21]) was 83.8. For the same molecule, the IC50 [22] was > 20 µM, the IC50 (KYSE-30) was 0.3 µM and the IC50 [23] was > 20 µM. The Activity (KYSE-150 cell line [24]) was 17.1, the IC50 [25] was > 20 µM and the IC50 [26] was > 20 µM. For the same molecule, the IC50 [27] was > 20 µM, the Activity (KYSE-150 cell line [28]) was 15.3 and the IC50 [29] was > 20 µM. For the same molecule, the IC50 [30] was > 20 µM, the IC50 [31] was > 20 µM and the Activity (KYSE-150 cell line [32]) was 4.5. The IC50 [33] was > 20 µM, the Activity (KYSE-150 cell line [34]) was 58 and the “fold change (FC)” value (KYSE-150 cell line [35]) was 0.98.
